# PubChem BioAssay AID2546 (National Center for Advancing Translational Sciences (NCATS), 2010)
# Several values for one entry are separate records, joined by “and”; a condition that tells them apart may be missing. Identical values can stand only once. The campaign covered roughly 310,000 compounds. About 11,000 (3.5%) were called active. The inconclusive results got no clear call from the source; some entries with a clear call stand among them for comparison. The call rests on the fitted dose curve; in most records, active means well fitted inhibition curve with a large enough effect; inconclusive means small, poorly fitted or top-dose-only effect, or effect the other way; inactive means flat fitted curve, though single readings scatter. A potency beside an inconclusive call is a rough fit, not a confirmed value.
# Assay: VP16 counterscreen qHTS for inhibitors of ROR gamma transcriptional activity;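 further: Gal4-VP16 expression switched on by copper sulfate through the metallothionein promoter; nearly all actives have a fitted effect of over 50% in size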
# Settings: Drosophila S2 Gal4-VP16 UAS-luciferase, luminescence, 20 h; activity, negative = inhibition: at 53.6 µM (top of the series)
# On the % scale 0 is the no-effect control and ±100 the full control effect; potency means the concentration at half of the fitted maximal effect; tags describe the fitted curve by direction and shape.
SMILES,Potency,"activity, negative = inhibition"
S=C(NCCc1ccccc1)Nc1ccc(Cl)cc1Cl,active: 15.8 µM,–
Clc1cccc(-c2csc(Nc3cccnc3)n2)c1,–,inactive: 7.78%
CCOc1ccc(N=c2scc(-c3ccccc3)n2CCO)cc1,"inconclusive: 35.5 µM [inhibitor, single point]",–
N#Cc1cc([N+](=O)[O-])ccc1N1CCN(c2ccccc2O)CC1,–,inactive: -0.433% [at 10 µM]
Cc1ccc(SCc2ccc(C(=O)NCc3cccnc3)cc2)cc1,"inconclusive: 17.8 µM [inhibitor, partial curve, poor fit]",–
COc1cc(NC(=O)CSc2ncnc3sc4c(c23)CCC(C)C4)c(C(=O)O)cc1OC (stereo unspecified),"inconclusive: 20 µM [inhibitor, single point]",–
Cc1cc(C)n(Cc2ccc(Cl)c(Cl)c2)c(=O)c1S(=O)(=O)c1ccccc1,"inconclusive: 35.5 µM [activator, single point]",–
O=C1NC(=O)/C(=C/c2ccc(OS(=O)(=O)c3ccc(F)cc3F)cc2)N1,"inconclusive: 35.5 µM [inhibitor, single point]",–
CCc1ccc2c(c1)c(N=NC1=NC(=O)CS1)c(O)n2CC,"inconclusive: 28.2 µM [inhibitor, single point]",–
COc1ccc(Cl)cc1NC(=S)NCc1ccco1,"inconclusive: 35.5 µM [inhibitor, single point]",–
Cc1ccc(N2C(=O)c3ccccc3C2C(=O)c2cc(C)ccc2O)cc1 (stereo unspecified),–,inactive: -0.333%
Cc1ccc(C2C(C#N)=C(N)Oc3n[nH]c(-c4cccs4)c32)cc1 (stereo unspecified),"inconclusive: 17.8 µM [inhibitor, single point]",–
COc1ccc2cc3cc(C(=O)N4CCN(C5CCCCC5)CC4)oc3nc2c1,"inconclusive: 5.62 µM [inhibitor, single point]",–
NC(=O)/C(=N\OC(=O)c1ccco1)c1nc(-c2ccc(Br)cc2)cs1,"inconclusive: 14.1 µM [inhibitor, single point]",–
Cc1cccc(C(=O)Oc2ccccc2C(=O)N2CCOCC2)c1,–,inactive: -1.52%
CS(=O)(=O)c1ccc(-c2cn3cc(C(=O)O)ccc3n2)cc1,active: 10 µM,–
COc1ccc(NC(=O)CSCc2cc(=O)n3cc(C)sc3n2)cc1,–,inactive: 0.556%
COC(=O)c1ccc(NC(=O)CCS(=O)(=O)c2ccc(C)cc2)cc1,"inconclusive: 10 µM [inhibitor, partial curve]",–
CC(=O)n1cc(N(C(=O)CCl)c2ccc(Cl)cc2)c2ccccc21,"inconclusive: 20 µM [inhibitor, single point]",–
COc1ccc(/C=C(\C#N)C(=O)OCC(=O)NC(C)c2ccccc2)cc1 (stereo unspecified),–,inactive: 0.196%
CCCCCN(C)CCC(O)(P(=O)(O)O)P(=O)(O)O,–,inactive: 0.0129%
O=C(c1ccccc1)c1cc2ccccc2oc1=O,"inconclusive: 10 µM [activator, partial curve]",–
CCOC(=O)N1CC=C2C(C#N)=C(N)C(C#N)(C#N)[C@H](c3ccsc3)[C@H]2C1,–,inactive: 0.351%
Cc1ccc2cccc(OCc3ccc(F)cc3)c2n1,"inconclusive: 35.5 µM [inhibitor, single point]",–
CCOc1ccc(C2CC(c3ccc(CC)cc3)n3nc(N)nc3N2)cc1 (stereo unspecified),"inconclusive: 22.4 µM [inhibitor, single point]",–
O=C(Nc1ccccc1Cl)c1ccc(=O)[nH]n1,–,inactive: 3.83%

SMILES,Potency,"activity, negative = inhibition"
CCCn1nnc(NC(=O)/C=C/c2ccc(C(C)C)cc2)n1,"inconclusive: 5.01 µM [inhibitor, single point]",–
COc1ccc(CCN2CCCn3c2nc2c3c(=O)n(CC(N)=O)c(=O)n2C)cc1OC,–,inactive: -6.53%
COc1ccc(-c2nn(-c3ccccc3)cc2C(=O)O)cc1OC,"inconclusive: 25.1 µM [inhibitor, partial curve, poor fit]",–
NNC(=S)NC1CCCCCCCCCCC1,active: 2.82 µM,–
C/C(=C\C(=O)c1ccc(Cl)cc1Cl)N(C)C,"inconclusive: 35.5 µM [inhibitor, single point]",–
CCN(CC(=O)Nc1ccc(N2CCOCC2)cc1)Cc1nc2ccccc2c(=O)[nH]1,active: 12.6 µM,–
Cc1cc(N=NC(=O)c2ccccc2)ccc1O,"inconclusive: 25.1 µM [inhibitor, single point]",–
CCOc1ccc(C(C)NC(=O)Cc2ccccc2F)cc1OCC (stereo unspecified),–,inactive: 7.08%
C/C(=N\Nc1nc(C)cc(-c2ccccc2)n1)c1ccc(O)cc1,"inconclusive: 35.5 µM [inhibitor, single point]",–
N#Cc1c(-c2ccccc2)cc2nc3ccccc3n2c1N,"inconclusive: 8.91 µM [activator, partial curve]",–
CN1CCc2c(sc3c2C(=O)NC(c2ccc4c(c2)OCO4)N3)C1 (stereo unspecified),"inconclusive: 22.4 µM [inhibitor, single point]",–
COc1cc(NC(=O)c2cccc(C)c2)ccc1NC(=O)c1cc2ccccc2o1,active: 12.6 µM,–
COC(=O)c1ccc(NC(=S)Nc2ccc3ccccc3c2)cc1,"inconclusive: 35.5 µM [inhibitor, single point]",–
Cc1ccc(Nc2nc(Nc3ccc(C)cc3)nc(SC3=NCCS3)n2)cc1,active: 5.62 µM,–
CC(=O)Nc1ccc(S(=O)(=O)Nc2cccc3cccnc23)cc1,"inconclusive: 12.6 µM [inhibitor, single point] and inconclusive: 35.5 µM [inhibitor, single point]",–
O=C(/C=C(\O)c1ccccc1)c1ccccc1O,active: 4.47 µM,–
CCCCOc1cccc(C(=O)NNC(=S)NC2CCCCC2)c1,–,inactive: 4.42%
Cc1ccc(C2=NNC3(CCOC(C)(C)C3)S2)cc1 (stereo unspecified),active: 7.94 µM,–
Nc1nnnn1CC(=O)N/N=C/C=C/c1ccccc1,–,inactive: 11.2%
COC(=O)c1cc(=O)n(CCc2ccccc2F)c(=Nc2ccc(F)c(Cl)c2)s1,"inconclusive: 35.5 µM [inhibitor, single point]",–
O=C(N/N=C/c1cccs1)c1[nH]ncc1Br,–,inactive: -10.1%
CC(Oc1ccccc1F)C(=O)NNC(=O)CCNC(=O)c1ccccc1Cl (stereo unspecified),–,inactive: -5.44%
Cc1cc(C)c2cc(C#N)c(SCC(=O)NCc3ccco3)nc2c1,"inconclusive: 35.5 µM [inhibitor, single point]",–
O=C(Cc1cccc2ccccc12)N/N=C1\CCCc2ccccc21,–,inactive: -20.3%
Cc1ccc(-c2nn(C)c(=O)c3ccccc23)cc1CNC(=O)c1ccccc1,"inconclusive: 15.8 µM [inhibitor, single point]",–
CCOC(=O)N1CCC(NC(=O)C2CCCN(Cc3nc(-c4cccc(C)c4)oc3C)C2)CC1 (stereo unspecified),"inconclusive: 35.5 µM [inhibitor, single point]",–

SMILES,Potency,"activity, negative = inhibition"
COc1ccc(S(=O)(=O)N2CCCCCC2)cc1C(=O)OCC(=O)NCC(C)C,–,inactive: -5.52%
CCCCNC(=S)N/N=C/c1cccc(OCC)c1O,active: 12.6 µM,–
Fc1ccc2nc(Nc3nc4cc5c(cc4s3)OCCO5)sc2c1,active: 12.6 µM,–
COc1cc(CCCN2C(=S)NC[C@@H]2Cc2ccccc2)cc(OC)c1OC,"inconclusive: 35.5 µM [inhibitor, single point]",–
Fc1cccc(NC(=S)N2CCCCC2)c1,"inconclusive: 35.5 µM [inhibitor, single point]",–
CCCN1Cc2cccc(C(=O)N3CCN(c4cc(Cl)ccc4C)CC3)c2C1=O,"inconclusive: 0.708 µM [inhibitor, single point]",–
O=S(=O)(NCc1ccc2c(c1)OCO2)c1cccc(F)c1,–,inactive: 1.11%
C/C(=N\NC(=O)c1ccc(C)cc1)C1C(=O)c2ccccc2C1=O,active: 0.562 µM,–
O=C1/C(=C\c2cc(Cl)c(O)c(Cl)c2)SC(=S)N1Cc1ccccc1,"inconclusive: 25.1 µM [inhibitor, single point]",–
COc1cc(/C=N/NC(=O)CNc2n[nH]c(=O)[nH]c2=O)ccc1OCc1ccccc1,–,inactive: 2.98%
Cc1ccc(-n2cc(C(=O)c3cc(Cl)ccc3O)cc(C#N)c2=O)cc1,"inconclusive: 35.5 µM [inhibitor, single point]",–
O=C(CSc1nnc(-c2ccccc2)c(-c2ccccc2)n1)Nc1ccc(Br)cn1,"inconclusive: 5.62 µM [activator, single point]",–
CCNC(=S)NNC(=O)c1cc(-c2ccc(OC)cc2)nc2ccccc12,active: 3.55 µM,–
CCOC(=O)c1ccc(NC(=O)Cn2ncc(Cl)c(Cl)c2=O)cc1,active: 10 µM,–
COc1ccccc1OCCN1CSC(=S)N(C)C1,"inconclusive: 28.2 µM [inhibitor, single point]",–
COc1ccccc1N(C(=O)c1snc(C(N)=O)c1N)C(C(=O)NC1CCCC1)c1ccco1 (stereo unspecified),–,inactive: 5.69%
O=C(c1cccnc1)N1CCN(Cc2ccc3ccccc3c2)CC1,–,inactive: 4.38%
O=C(Nc1ccccc1)c1ccc(S(=O)(=O)NCc2cccnc2)cc1,"inconclusive: 35.5 µM [inhibitor, single point]",–
COC(=O)c1ccc(NC(=O)c2ccccc2NS(=O)(=O)c2ccccc2)cc1,"inconclusive: 31.6 µM [inhibitor, single point]",–
Cc1ccc(C(=O)Nc2ccsc2C(=O)O)cc1,"inconclusive: 12.6 µM [inhibitor, single point]",–
CN(C)CCCNc1cc(C(C)(C)C)nc2c(-c3ccccc3)cnn12,active: 2.51 µM,–
O=C(NCCc1ccccc1)c1ccc2[nH]c(=O)c(=O)[nH]c2c1,–,inactive: -8.66%
CC(C)=CCCC1=CCC(/C=N/NC(N)=O)C(C)C1 (stereo unspecified),"inconclusive: 20 µM [inhibitor, single point]",–
CCOC(=O)CCCOC(=O)c1ccc(S(=O)(=O)N(C)C)cc1,"inconclusive: 11.2 µM [inhibitor, partial curve]",–
